Test results taken from paper PMC4336329 (PLoS ONE, 2015).
The whole screen tested about 310,000 compounds, of which about 14,000 (4.5%) showed an effect of 50% or more. Effects have a minus sign here. The list shows a part of the results.

Each compound was assayed against human ether-à-go-go-related gene (hERG) potassium channel (human, UniProt Q12809) (assay: primary screen, population patch clamp on CHO cells stably expressing hERG).
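Note: peak tail current of the secondary pulse compared with the same well before compound.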

human ether-à-go-go-related gene (hERG) potassium channel, sequence (Q12809 whole entry, looked up): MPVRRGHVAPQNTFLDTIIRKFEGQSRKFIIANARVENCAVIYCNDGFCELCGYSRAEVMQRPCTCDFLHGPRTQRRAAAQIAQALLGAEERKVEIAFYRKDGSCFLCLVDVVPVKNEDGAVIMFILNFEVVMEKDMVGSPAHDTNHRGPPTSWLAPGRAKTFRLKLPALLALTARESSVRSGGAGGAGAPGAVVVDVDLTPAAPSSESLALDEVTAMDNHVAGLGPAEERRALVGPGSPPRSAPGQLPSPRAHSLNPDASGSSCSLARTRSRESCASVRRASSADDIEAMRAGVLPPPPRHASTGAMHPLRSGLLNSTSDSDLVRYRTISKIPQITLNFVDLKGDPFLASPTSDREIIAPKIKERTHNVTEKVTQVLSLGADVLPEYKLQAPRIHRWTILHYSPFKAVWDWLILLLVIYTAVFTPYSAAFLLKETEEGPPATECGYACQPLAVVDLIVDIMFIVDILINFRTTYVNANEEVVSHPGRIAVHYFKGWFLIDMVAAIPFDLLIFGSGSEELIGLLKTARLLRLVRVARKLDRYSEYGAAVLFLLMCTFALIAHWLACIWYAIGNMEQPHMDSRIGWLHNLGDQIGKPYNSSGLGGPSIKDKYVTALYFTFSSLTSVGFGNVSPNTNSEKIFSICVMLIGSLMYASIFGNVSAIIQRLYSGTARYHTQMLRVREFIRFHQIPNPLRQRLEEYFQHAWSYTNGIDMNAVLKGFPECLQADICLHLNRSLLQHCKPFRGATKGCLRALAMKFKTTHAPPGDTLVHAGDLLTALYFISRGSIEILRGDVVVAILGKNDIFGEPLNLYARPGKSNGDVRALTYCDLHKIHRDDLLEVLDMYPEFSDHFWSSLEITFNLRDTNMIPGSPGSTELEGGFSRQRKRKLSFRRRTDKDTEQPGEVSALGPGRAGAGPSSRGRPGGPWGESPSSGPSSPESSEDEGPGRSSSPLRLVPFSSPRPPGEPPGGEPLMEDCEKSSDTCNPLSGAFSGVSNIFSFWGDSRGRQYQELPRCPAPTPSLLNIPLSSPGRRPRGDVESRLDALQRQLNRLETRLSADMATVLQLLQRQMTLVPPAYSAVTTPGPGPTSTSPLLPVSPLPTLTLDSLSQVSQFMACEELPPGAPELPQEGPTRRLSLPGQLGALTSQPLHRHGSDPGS

SMILES	hERG current change (%, negative = inhibition) at 10uM [%]
Cc1ccc(C(NC(=O)N2CCOCC2)C(Cl)Cl)cc1F (centres unmarked)	2.35
CCCCNc1c([N+](=O)[O-])cc(C(=O)O)cc1[N+](=O)[O-]	-9.84
O=C(Nc1cccnc1)c1sc2cccc(F)c2c1Cl	1.13
O=C(Nc1ccccc1)N1CCN(Cc2ccc(Cl)cc2)CC1	-33.8
Cc1ccc(S(=O)(=O)Oc2ccc(/C=C(/NC(=O)c3ccccc3)C(=O)NC(C)C(=O)O)cc2)cc1 (centres unmarked)	9.72
Cc1ccc(S(=O)(=O)N2CCCC2)cc1C(=O)Nc1ccc(-n2cnnn2)cc1	-23.9
COc1ccc(NC(=O)CSc2n[nH]c(N)n2)c([N+](=O)[O-])c1	22
COc1ccc(C(CC(=O)O)NC(=O)C2CCCCC2)cc1 (centres unmarked)	4.81
O=C(CCSc1nc(-c2ccco2)cc(C(F)(F)F)n1)NCc1ccccn1	-22.5
CCN(CC)CCCNc1nc(C)cc(COC)c1C#N	-28.5
CCOC(=O)c1c(-n2c(C)cc(C=C3C(=O)NC(=S)NC3=O)c2C)sc2c1CCCC2	-5.55
CCCCOC(=O)c1ccc(NS(=O)(=O)c2cc(-c3nnnn3CC)ccc2OC)cc1	-12.4
Clc1ccc(CN2CCc3c([nH]c4ccccc34)C2)cc1Cl	-28.2
COc1cc(C(=O)Nc2nnc(CC(=O)NCc3ccccc3)s2)cc(OC)c1OC	-10.7
O=C(c1ccc(COc2ccc(Cl)cc2)o1)N1N=C(C(F)F)CC1(O)C(F)F (centres unmarked)	1.74
CCOc1ccccc1NC=C1C(=O)OC(C)(C)OC1=O	6.48
C[N+](C)(C)CCCNC(=O)c1ccc(/C=N/O)nc1.[I-]	13.7
Cn1ncc(Br)c1C(=O)NC12CC3CC(CC(C3)C1)C2	-6.48
Cn1cnnc1Sc1ccc(CN2CCN(C3CCCC3)C(CCO)C2)o1 (centres unmarked)	3.06
Cc1ccc(-n2nnnc2SCC(=O)c2c(N)n(C3CC3)c(=O)[nH]c2=O)cc1C	-10.6
COc1ccc(-c2cc3nc(C)c(CCC(=O)NC(C)CCc4ccco4)c(C)n3n2)c(OC)c1 (centres unmarked)	-62
NC(=O)CC(NC(=O)c1ccccc1)c1ccc(NCCc2ccc(F)cc2)c([N+](=O)[O-])c1 (centres unmarked)	16.2

SMILES	hERG current change (%, negative = inhibition) at 10uM [%]
CCN(CC)c1ccc(/C=N/NC(=O)c2cccc(S(=O)(=O)Nc3ccccc3OC)c2)c(O)c1	12.1
COc1ccc(C(=O)Nc2c3c(nn2-c2ccc([N+](=O)[O-])cc2)CS(=O)(=O)C3)cc1	-9.85
Cc1cc(OCC(=O)NC(Cc2ccc(Cl)cc2)C(=O)O)c2c(C)c(C)c(=O)oc2c1 (centres unmarked)	4.07
CN(Cc1c(C(=O)N/N=C/c2cccc(F)c2)nnn1-c1nonc1N)c1ccccc1	9.23
COc1ccc(CN2CCN(S(=O)(=O)c3ccc(NC(C)=O)cc3)CC2)c(OC)c1OC.O=C(O)C(=O)O	-0.574
COc1ccc(-c2nnn(Cc3nn[nH]n3)n2)cc1OC	3.25
CCOc1ccccc1NC(=O)Nc1cc(OC)ccc1OC	16.5
CCC(CC)c1nnc(NC(=O)c2ccc3ccccc3n2)s1	-3.32
CCC(C(=O)OCC(=O)Nc1ccc(Cl)c(S(=O)(=O)N(C)C)c1)c1ccccc1 (centres unmarked)	-6.93
COc1ccc(NC(=O)N(Cc2ccc(C)cc2)Cc2ccccn2)c(OC)c1	-19.8
Cc1coc2cc3oc(=O)c4c(c3cc12)CCCC4	3.62
CC(NC(=O)/C(C#N)=C/c1ccc(Cl)c([N+](=O)[O-])c1)c1ccccc1 (centres unmarked)	4.7
CCOC(=O)c1sc(=S)n(C)c1NC(=O)c1ccc(OC)cc1	17.4
O=C(O)c1cccc(Oc2ncnc3sc4c(c23)CCCC4)c1	34.5
Cc1ccc(S(=O)(=O)NC2=NCN(CC(=O)[O-])CN2)cc1.[Na+]	-7.49
CC(C)Oc1ccc(C(=O)Nc2ccc3c(c2)n(C)c(=O)n3C)cc1	-8.22
O=C(Nc1sc2c(c1C(=O)O)CCCCC2)c1ccccc1	67.4
CC1CN(S(=O)(=O)c2cccc(C(F)(F)F)c2)CC(C)O1 (centres unmarked)	7.07
N#Cc1ccccc1OCC(=O)NC(=O)NC1CCS(=O)(=O)C1 (centres unmarked)	15.5
CCOC(=O)COc1ccc(S(=O)(=O)NCc2ccco2)cc1	-1.53
COc1cccc(C(=O)NCC(=O)N/N=C(C)\C=C\c2ccccc2)c1	-10
Cc1cc(SCC(=O)c2ccccc2)nc(=O)[nH]1	17.6

SMILES	hERG current change (%, negative = inhibition) at 10uM [%]
Cc1ccc(N2C(=O)NC(NC(=O)c3ccc(Cl)cc3)(C(F)(F)F)C2=O)cc1 (centres unmarked)	-31.5
CCC(=O)Nc1ccc2c(c1)OCCO2	-11.7
COc1ccc(-n2c(/C=C3/C(=O)Nc4ccccc43)nc3ccccc3c2=O)cc1	15.9
COC(=O)C1=C(c2ccc(OCc3ccccc3)cc2)C[C@@H]2CC[C@H]1N2C(=O)NCc1ccc(OC)c(OC)c1	7.11
Cc1cc(N(CCO)CCO)ccc1N=Nc1cc(F)ccc1F	-5.6
COC(=O)Cc1[nH]n(-c2nc3ccccc3s2)c(=O)c1C(C)=Nc1ccc(OC)cc1	-1.89
CC(C(=O)Nc1cccc([N+](=O)[O-])c1)N(c1ccccc1)S(C)(=O)=O (centres unmarked)	10.5
Cc1onc(-c2ccccc2)c1C(=O)Nc1ccc(S(=O)(=O)NC(C)(C)C)cc1	21.3
Cc1cc(C)n(-c2ccc(C(=O)OCC(=O)Nc3cc(Cl)ccc3[N+](=O)[O-])cc2)n1	-12.2
CCOC(=O)N/N=C(\C)c1ccc(Oc2ncccn2)cc1	17.1
Cc1ccc2c(c1)N1C(=O)c3ccccc3C1C1=C(CC(C)(C)CC1=O)N2 (centres unmarked)	19.7
O=C(O)[C@@H]1Cc2ccccc2N1	8.54
COCCCNC(=O)c1ccc2c(=O)n(CC3CCCO3)c(=S)[nH]c2c1 (centres unmarked)	-8.94
O=C(O)CSCC(=O)N1CCN(Cc2ccc3c(c2)OCO3)CC1	15.2
O=C1NC(=S)S/C1=C\c1ccc(SCc2ccccc2)o1	12.4
O=C(O)/C=C\C(=O)Nc1ccc(OCc2ccccc2)cc1	27.4
CCC(=O)Nc1ccc(C(=O)CSc2nc3ccccc3[nH]2)cc1	13.7
CC(=O)c1ccc(NC(=O)N[C@@H](Cc2ccccc2)C(=O)O)cc1	-11.4
Cc1ccc(/C=N/n2c(C3CCCCC3)n[nH]c2=S)s1	15.1
O=C1c2ccccc2C(=O)N1CCn1c(=O)oc2ccccc21	9.72
Cc1cc(C)cc(N(C(C)C(=O)N2CCCC2)S(C)(=O)=O)c1 (centres unmarked)	3.95
CCOC(=O)Cn1c(=O)oc2cc(S(=O)(=O)NCCC(C)C)ccc21	8.29

SMILES	hERG current change (%, negative = inhibition) at 10uM [%]
CCOC(=O)Cn1c(=O)n(Cc2ccco2)c(=O)c2ccc(C(=O)NCCc3ccccc3)cc21	-53.2
O=C(NCC1CCCO1)c1ccc(NS(=O)(=O)c2cccs2)cc1 (centres unmarked)	18.2
CC(Oc1ccccc1F)c1nnc(SCC(=O)c2c(N)n(C3CC3)c(=O)[nH]c2=O)o1 (centres unmarked)	-4.61
N=c1c(C(=O)NCCc2ccccc2)cc2c(=O)n3ccccc3nc2n1CCCN1CCOCC1	-76.2
O=C(CCC(=O)c1cccs1)NCc1ccc(Cl)cc1	-7.97
COC(=O)C1=C(C)NC(=O)NC1c1ccco1 (centres unmarked)	14.5
COC(=O)C1=C(C)N(C2CCCCC2)C(=O)C1	9.82
CCC(=O)Oc1ccc2c(C)cc(=O)oc2c1C(=O)CC	14
NC(=O)c1cc([N+](=O)[O-])ccc1NCc1cccc2ccccc12	10.2
CC(C)=NNc1nc2c(c(=O)n(C)c(=O)n2C)n1C	-1.35
COc1cccc(CNC(=O)CCC2CCCN(C(=O)CCC(F)(F)F)C2)c1 (centres unmarked)	-5.17
Cc1cc(NC(=O)C(C)Oc2ccc(Cl)cc2Cl)n(-c2ccccc2)n1 (centres unmarked)	-3.54
O=C(O)CCN1C(=O)/C(=C\c2ccc(OCc3ccccc3)c(OCc3ccccc3)c2)SC1=S	18.3
O=C(c1ccco1)c1cn(CC(=O)N2CCCc3ccccc32)c2ccccc12	-14.6
Cc1nc(SCC(O)CO)c([N+](=O)[O-])[nH]1 (centres unmarked)	6.84
Cc1cc(NC(=O)c2cccc([N+](=O)[O-])c2)n(-c2ccccc2)n1	-13.3
Cc1cccc(/C=C2\Sc3ccc(C(=O)N4CCC(C(N)=O)CC4)cc3N(C)C2=O)c1	-49.3
Cc1ccc(N)c(C)c1	8.3
CN1C(=O)C2(C(C#N)=C(N)N(c3cc(Cl)cc(Cl)c3)C3=C2C(=O)CC(C)(C)C3)c2ccccc21 (centres unmarked)	-4.26
O=C(Nc1cc(Cl)ccc1Cl)c1ccco1	9.8
